Experimental data as given in the supplement of paper PMC11171410.
Counter-ions that a name gives are not always drawn. Many values rest on one well or one pass, so single values are uncertain. *1 amine or outer side, *2 acyl side, *3 side chain or, on linkers, in order; H or OH if unused. Where a SMILES comes first, the peptide text is derived from it. Bridges are numbered along the chain shown (N, C = ends). Roman numbers before positions name the chains, in order. [ ]: non-standard residue; d: D form. Actinocin(9to1) = Cc1c2oc3c(C)ccc(C(=O)[*:1])c3nc-2c(C(=O)[*:2])c(N)c1=O; NMeV = CN[C@H](C(=O)O)C(C)C; Sar = CNCC(=O)O

How the values were obtained:
[1] = test system: SUDHL6 venetoclax-resistant; experiment: estimated IC50 (cell viability); higher = less potent
SUDHL6 parental = experiment: as above
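Note: compound screen comparing venetoclax-resistant SUDHL6, derived by months of escalating venetoclax exposure, with its matched parental line, IC50 from one-site nonlinear dose–response fit, geometric mean for duplicated compounds.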

| SMILES | estimated IC50 [1] [µM] | estimated IC50 (SUDHL6 parental) [µM] |
| --- | --- | --- |
| Cc1c2oc3c(C)ccc(C(=O)N[C@@H]4C(=O)N[C@H](C(C)C)C(=O)N5CCC[C@H]5C(=O)N(C)CC(=O)N(C)[C@@H](C(C)C)C(=O)O[C@@H]4C)c3nc-2c(C(=O)N[C@@H]2C(=O)N[C@H](C(C)C)C(=O)N3CCC[C@H]3C(=O)N(C)CC(=O)N(C)[C@@H](C(C)C)C(=O)O[C@@H]2C)c(N)c1=O [Dactinomycin] (I: T[dV]P[Sar][NMeV] / II: T[dV]P[Sar][NMeV]; ester I:1-I:C, II:1-II:C; linker I:N-II:N via Actinocin(9to1)) | 2.26 | > 10 |
| Cc1cc(C)c(Nc2ccnc(Nc3ccc(C#N)cc3)n2)c(C)c1 [Dapivirine (TMC120)] | 4.64 | 8.36 |
| Cc1nc(Nc2ncc(C(=O)Nc3c(C)cccc3Cl)s2)cc(N2CCN(CCO)CC2)n1 [Dasatinib] | 0.1 | 0.29 |
| COc1cccc2c1C(=O)c1c(O)c3c(c(O)c1C2=O)C[C@@](O)(C(C)=O)C[C@@H]3O[C@H]1C[C@H](N)[C@H](O)[C@H](C)O1 [Daunorubicin HCl] | 0.32 | 0.69 |
| COc1cccc2c1C(=O)c1c(O)c3c(c(O)c1C2=O)C[C@@](O)(C(C)=O)C[C@@H]3O[C@H]1C[C@H](N)[C@H](O)[C@H](C)O1 [Daunorubicin hydrochloride] | 6.23 | > 10 |
| O=C(O)c1ccc(-n2nc(-c3ccccc3O)nc2-c2ccccc2O)cc1 [Deferasirox] | 5.2 | 8.8 |
| CNC(=O)c1cc(Oc2ccc(NC(=O)Nc3ccc(Cl)c(C(F)(F)F)c3)cc2)ccn1 [Donafenib (Sorafenib D3)] | 2.23 | 6.17 |
| CN(C)C(=S)NN=C(c1ccccn1)c1ccccn1 [Dp44mT] | 0.043 | 0.083 |
| CCCCc1oc2ccc(NS(C)(=O)=O)cc2c1C(=O)c1ccc(OCCCN(CCCC)CCCC)cc1 [Dronedarone HCl] | 3 | 6.2 |
| C[C@H](Nc1ncnc2nc[nH]c12)c1cc2cccc(Cl)c2c(=O)n1-c1ccccc1 [Duvelisib (IPI-145, INK1197)] | 0.104 | 0.385 |
| C[C@H](Nc1ncnc2nc[nH]c12)c1cc2cccc(Cl)c2c(=O)n1-c1ccccc1 [Duvelisib (R enantiomer)] | 6.41 | > 10 |
| Cc1cc(Nc2cc(N3CCN(C)CC3)nc(/C=C/c3ccccc3)n2)n[nH]1 [ENMD-2076] | 4 | 6.28 |
| CCOc1cc(C(=O)N2CCC(N3CCN(C)CC3)CC2)ccc1Nc1ncc2c(n1)N(C1CCCC1)c1ccccc1C(=O)N2C [ERK5-IN-1] | 4.6 | > 10 |
| CC/C(=C(\c1ccc(O)cc1)c1ccc(OCCNC)cc1)c1ccccc1 [Endoxifen HCl] | 3.58 | > 10 |
| CN1CCN(c2ccc(C(=O)Nc3n[nH]c4ccc(Cc5cc(F)cc(F)c5)cc34)c(NC3CCOCC3)c2)CC1 [Entrectinib (RXDX-101)] | 4.11 | 6.94 |
| CO[C@H]1C[C@@H]2CC[C@@H](C)[C@@](O)(O2)C(=O)C(=O)N2CCCC[C@H]2C(=O)O[C@H]([C@H](C)C[C@@H]2CC[C@@H](OCCO)[C@H](OC)C2)CC(=O)[C@H](C)/C=C(\C)[C@@H](O)[C@@H](OC)C(=O)[C@H](C)C[C@H](C)/C=C/C=C/C=C/1C [Everolimus (RAD001)] | 1.31 | 2.38 |
| CO[C@H]1C[C@@H]2CC[C@@H](C)[C@@](O)(O2)C(=O)C(=O)N2CCCC[C@H]2C(=O)O[C@H]([C@H](C)C[C@@H]2CC[C@@H](OCCO)[C@H](OC)C2)CC(=O)[C@H](C)/C=C(\C)[C@@H](O)[C@@H](OC)C(=O)[C@H](C)C[C@H](C)/C=C/C=C/C=C/1C [Everolimus] | 4.89 | > 10 |
| Cc1cc([N+](=O)[O-])ccc1NS(=O)(=O)c1cc(Cl)ccc1Cl [FH535] | 2.67 | 7.43 |
| CCn1c(=O)c(-c2ccc(Cl)cc2Cl)cc2cnc(Nc3ccc(N4CCNCC4)c(F)c3)nc21 [FRAX486] | 2.68 | 6.71 |

| SMILES | estimated IC50 [1] [µM] | estimated IC50 (SUDHL6 parental) [µM] |
| --- | --- | --- |
| CCCCCCCCc1ccc(CCC(N)(CO)CO)cc1 [Fingolimod (FTY720) HCl] | 3.2 | > 10 |
| Nc1nc(F)nc2c1ncn2[C@@H]1O[C@H](COP(=O)(O)O)[C@@H](O)[C@@H]1O [Fludarabine phosphate] | 1.74 | 3.2 |
| C=C[C@@]1(C)CC(=O)[C@]2(O)[C@@]3(C)[C@@H](O)CCC(C)(C)[C@@H]3[C@H](O)[C@H](OC(C)=O)[C@@]2(C)O1 [Forskolin] | 2.25 | > 10 |
| CC(C)n1ncnc1-c1cn2c(n1)-c1ccc(O[C@@H](C)C(N)=O)cc1OCC2 [GDC-0326] | 0.94 | 8.04 |
| C(#Cc1nc2ncccc2nc1OCCN1CCCC1)c1ccccc1 [GK921] | 0.57 | 0.87 |
| CCCc1cc(C)[nH]c(=O)c1CNC(=O)c1cc(-c2ccnc(N3CCN(C)CC3)c2)cc2c1cnn2C(C)C [GSK343] | 2.86 | 6.13 |
| O=C(O)c1cc(O)c(O)c(O)c1 [Gallic acid] | 4.27 | 7.12 |
| Nc1ccn([C@@H]2O[C@H](CO)[C@@H](O)C2(F)F)c(=O)n1 [Gemcitabine] | 0.45 | 2 |
| O=S(=O)(NCCNC/C=C/c1ccc(Br)cc1)c1cccc2cnccc12 [H 89 dihydrochloride] | 1.8 | 9.07 |
| COc1cc(N2CCC(N3CCN(C)CC3)CC2)ccc1Nc1ncc(Cl)c(-c2c[nH]c3ccccc23)n1 [HG-14-10-04] | 4.1 | 7.3 |
| N#Cc1c2nc3ccccc3nc2n2ccc(NC(=O)c3cccs3)cc12 [HI-TOPK-032] | 2.87 | 7.91 |
| COc1ccc(S(=O)(=O)/N=C2\C=CC=C\C2=C/C=C2C=CN(O)C=C2)cc1 [HMN-176] | 0.4 | 0.7 |
| CCOC(=O)c1cnc2ccc(-c3cncc(NS(=O)(=O)c4ccccc4)c3)cn12 [HS-173] | 0.24 | 0.53 |
| CCS(=O)(=O)Nc1ccc2c(c1)/C(=C(/Nc1ccc(CN3CCCCC3)cc1)c1ccccc1)C(=O)N2 [Hesperadin] | 0.94 | 5.05 |
| COc1cc2c(cc1-c1c(C)noc1C)ncc1[nH]c(=O)n([C@H](C)c3ccccn3)c12 [I-BET151] | 2.8 | > 10 |
| O=C(c1ccc(Nc2nccc(-c3cc4ccccc4s3)n2)cc1)N1CCC(N2CCCC2)CC1 [IKK-16 (IKK Inhibitor VII)] | 2.28 | 5.22 |
| C[C@H](NC(=O)c1c(N)nn2cccnc12)c1cc2cccc(C#Cc3cnn(C)c3)c2c(=O)n1-c1ccccc1 [IPI-549] | 2.56 | 5.58 |
| O=C(Cn1nnc(-c2ccncc2)c1-c1ccccc1)Nc1ccc(-c2ccccc2)cn1 [IWP-O1] | 2.71 | 5.73 |
| CC[C@H](Nc1ncnc2[nH]cnc12)c1nc2cccc(F)c2c(=O)n1-c1ccccc1 [Idelalisib (CAL-101, GS-1101)] | 3.1 | > 10 |

| SMILES | estimated IC50 [1] [µM] | estimated IC50 (SUDHL6 parental) [µM] |
| --- | --- | --- |
| CC(C)C[C@H](NC(=O)CNC(=O)c1cc(Cl)ccc1Cl)B(O)O [Ixazomib (MLN2238)] | 0.04 | 0.06 |
| Clc1ccc(NN=C(c2ccccc2)c2ccccn2)nc1 [JIB-04] | 0.6 | 0.94 |
| Cc1cc(NC(=O)c2cccc(NC(=O)/C=C/CN(C)C)c2)ccc1Nc1nccc(-c2cccnc2)n1 [JNK-IN-8] | 3.73 | 8.44 |
| COCCNC1CCC(Nc2cc(-c3csc(NCC4(C#N)CCOCC4)n3)c(Cl)cn2)CC1 (centres undefined) [JSH-150] | 0.1 | 0.35 |
| CC(C)CNc1ccnc(NCc2csc(-c3ccccc3)n2)n1 [KHS101 hydrochloride] | 2.2 | 4 |
| O=C(Cc1ccc(-c2ccc(OCCN3CCOCC3)cc2)cn1)NCc1ccccc1 [KX2-391] | 0.058 | 0.105 |
| COc1cc(C(=O)N2CCC(N3CCN(C)CC3)CC2)ccc1Nc1ncc2c(n1)N(C)c1ccccc1C(=O)N2C [LRRK2-IN-1] | 5.4 | 8.7 |
| Oc1ccc2c(c1)CC[C@H](c1ccccc1)[C@@H]2c1ccc(OCCN2CCCC2)cc1 [Lasofoxifene Tartrate] | 6.63 | > 10 |
| CCC[C@H](Nc1nc(-c2ccc(NC(=O)NCC)c(OC)c2)ncc1C)c1cccnc1 [Lexibulin (CYT997)] | 0.036 | 0.075 |
| C=CC(C)(C)c1cc(/C=C/C(=O)c2ccc(O)cc2)c(OC)cc1O [Licochalcone A] | 2.12 | 4.57 |
| CCNC(=O)c1noc(-c2cc(C(C)C)c(O)cc2O)c1-c1ccc(CN2CCOCC2)cc1 [Luminespib (AUY-922, NVP-AUY922)] | 0.04 | 0.06 |
| Cn1cc(/C=C/C(=O)c2cccc(F)c2)cc1/C=C/C(=O)NO [MC 1568] | 4.15 | 7.6 |
| CCC1C/C(=C\c2cccnc2)C(=O)/C(=C/c2cccnc2)C1 (centres undefined) [MCB-613] | 0.68 | 1.64 |
| NC1(c2ccc(-c3nc4ccn5c(=O)[nH]nc5c4cc3-c3ccccc3)cc2)CCC1 [MK-2206 2HCl] | 1.9 | > 10 |
| O=C(O)Cn1nnc(-c2cc(N3CCC(Oc4cc(F)ccc4Br)CC3)no2)n1 [MK-8245] | 4.79 | > 10 |
| CN(C(=O)CNC(=O)/C=C/c1cccc(Cl)c1)C1CCS(=O)(=O)CC1 [ML264] | 1.78 | > 10 |
| Cc1ccc(S(=O)(=O)Nc2cc(C(F)(F)F)ccc2C(=O)Nc2nc(-c3ccccc3)cs2)cc1 [ML364] | 3.42 | > 10 |
| Cc1ncc(CCCN(C)C)cc1Nc1ncc2c(n1)-c1ccc(C(F)(F)F)cc1NC(=S)C2 [MLN0905] | 0.087 | 0.495 |
| CC(C)Oc1ccc(-c2c[nH]cc2CN(C)CCN)cc1 [MS023] | 6.54 | 9.79 |
